Test results published in US20240307507A1, “LACTOFERRIN COMPOSITIONS AND METHODS OF USE” (LACTEA THERAPEUTICS LLC, priority 2021, published 2024).

How the values were obtained:
[1] = tested on: Extra-Cellular Matrix (ECM) of Caco-2 cells; assay: Lactoferrin enrichment at the ECM by immunofluorescent imaging, Caco-2 cells; settings: varying concentrations, 37° C., two hours, IF imaging
[2] = tested on: salivary human bacteria (including Lactobacillus, Lactococcus, Streptococcus mutans, and Porphyromonas gingivalis); assay: Poultry surface treatment, chicken breasts inoculated with salivary bacteria; settings: 3 mg/mL surface treatment, 6 days at 37° C.

B1: API-E2: purified bovine lactoferrin from raw, untreated milk produced according to Example 1 (protein)
chain: APRKNVRWCTISQPEWFKCRRWQWRMKKLGAPSITCVRRAFALECIRAIAEKKADAVTLDGGMVFEAGRDPYKLRPVAAEIYGTKESPQTHYYAVAVVKKGSNFQLDQLQGRKSCHTGLGRSAGWIIPMGILRPYLSWTESLEPLQGAVAKFFSASCVPCIDRQAYPNLCQLCKGEGENQCACSSREPYFGYSGAFKCLQDGAGDVAFVKETTVFENLPEKADRDQYELLCLNNSRAPVDAFKECHLAQVPSHAVVARSVDGKEDLIWKLLSKAQEKFGKNKSRSFQLFGSPPGQRDLLFKDSALGFLRIPSKVDSALYLGSRYLTTLKNLRETAEEVKARYTRVVWCAVGPEEQKKCQQWSQQSGQNVTCATASTTDDCIVLVLKGEADALNLDGGYIYTAGKCGLVPVLAENRKSSKHSSLDCVLRPTEGYLAVAVVKKANEGLTWNSLKDKKSCHTAVDRTAGWNIPMGLIVNQTGSCAFDEFFSQSCAPGADPKSRLCALCAGDDQGLDKCVPNSKEKYYGYTGAFRCLAEDVGDVAFVKNDTVWENTNGESTADWAKNLNREDFRLLCLDGTRKPVTEAQSCHLAVAPNHAVVSRSDRAAHVKQVLLHQQALFGKNGKNCPDKFCLFKSETKNLLFNDNTECLAKLGGRPTYEEYLGTEYVTAIANLKKCSTSPLLEACAFLTR
With B1 the “Lactoferrin enrichment at the ECM” value [1] was “enrichment at the ECM was observed as concentration increased” and the “bacterial growth on chicken breast” value [2] was “no detectable growth”.
